# Data as given in the supplement of paper PMC8728848.
# This is one part of the list.
# B1: RBMC2 (Vibrio cholerae) (protein)
# chain: KISVRSGFAIDAIGASASTLVGGTGGNLNAAVNVKDIKAIDLTWGKYYWGGYHLLALDFRMSNGSVISMGSKNYAYSKQTERFTVPAGSRIKGIKAWTAGWLLDGVQFELA
# Experiments:
# Assay in all cases: glycan array binding signal (z-score within array); higher = stronger binding
# Settings in all cases: glycan notation: IUPAC condensed, linker removed
# Neu5Ac(a2-8)Neu5Ac = biological target: Neu5Ac(a2-8)Neu5Ac
# How it was run: (§1)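 Negative Z-scores can be read as non-binding. The Z-score is calculated within each array and then averaged across arrays of one protein sequence at different concentrations or buffers and across linkers. Arrays, 3228 in all, were curated from the Consortium for Functional Glycomics database and kept only where the protein sequence was available.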
# [1] = biological target: Neu5Ac(a2-8)Neu5Ac(a2-3)Gal(b1-3)GalNAc(b1-4)[Neu5Ac(a2-3)]Gal(b1-4)Glc
# How it was run: as §1
# [2] = biological target: Neu5Ac(a2-8)Neu5Ac(a2-3)Gal(b1-3)GalNAc(b1-4)[Neu5Ac(a2-8)Neu5Ac(a2-3)]Gal(b1-4)Glc
# How it was run: as §1
# [3] = biological target: Neu5Ac(a2-8)Neu5Ac(a2-3)Gal(b1-4)Glc
# How it was run: as §1
# [4] = biological target: Neu5Ac(a2-8)Neu5Ac(a2-3)Gal(b1-4)GlcNAc
# How it was run: as §1
# [5] = biological target: Neu5Ac(a2-8)Neu5Ac(a2-3)[Gal(b1-3)GalNAc(b1-4)]Gal(b1-4)Glc
# How it was run: as §1
# [6] = biological target: Neu5Ac(a2-8)Neu5Ac(a2-3)[GalNAc(b1-4)]Gal(b1-4)Glc
# How it was run: as §1
# [7] = biological target: Neu5Ac(a2-8)Neu5Ac(a2-8)Neu5Ac
# How it was run: as §1
# [8] = biological target: Neu5Ac(a2-8)Neu5Ac(a2-8)Neu5Ac(a2-3)Gal(b1-4)Glc
# How it was run: as §1
# [9] = biological target: Neu5Ac(a2-8)Neu5Ac(a2-8)Neu5Ac(a2-3)[Gal(b1-3)GalNAc(b1-4)]Gal(b1-4)Glc
# How it was run: as §1
# [10] = biological target: Neu5Ac(a2-8)Neu5Ac(a2-8)Neu5Ac(a2-3)[GalNAc(b1-4)]Gal(b1-4)Glc
# How it was run: as §1
# [11] = biological target: Neu5Ac(a2-8)Neu5Ac(a2-8)Neu5Ac(a2-8)Neu5Ac(a2-3)[GalNAc(b1-4)]Gal(b1-4)Glc
# How it was run: as §1
# [12] = biological target: Neu5Ac(a2-8)Neu5Gc(a2-3)Gal(b1-4)GlcNAc
# How it was run: as §1
# [13] = biological target: Neu5Ac(b2-6)Gal(b1-4)GlcNAc
# How it was run: as §1
# Neu5Ac(b2-6)GalNAc = biological target: Neu5Ac(b2-6)GalNAc
# How it was run: as §1
# [14] = biological target: Neu5Ac9Ac(a2-3)Gal(b1-3)GlcNAc
# How it was run: as §1
# [15] = biological target: Neu5Ac9Ac(a2-3)Gal(b1-4)GlcNAc
# How it was run: as §1
# [16] = biological target: Neu5Ac9Ac(a2-6)Gal(b1-4)GlcNAc
# How it was run: as §1
# [17] = biological target: Neu5Gc(a2-3)Gal(b1-3)GlcNAc
# How it was run: as §1
# [18] = biological target: Neu5Gc(a2-3)Gal(b1-3)[Fuc(a1-4)]GlcNAc
# How it was run: as §1
# Neu5Gc(a2-3)Gal(b1-4)Glc = biological target: Neu5Gc(a2-3)Gal(b1-4)Glc
# How it was run: as §1
# [19] = biological target: Neu5Gc(a2-3)Gal(b1-4)GlcNAc
# How it was run: as §1
# [20] = biological target: Neu5Gc(a2-3)Gal(b1-4)GlcNAc(b1-3)Gal(b1-4)GlcNAc(b1-2)Man(a1-3)[Neu5Gc(a2-3)Gal(b1-4)GlcNAc(b1-3)Gal(b1-4)GlcNAc(b1-2)Man(a1-6)]Man(b1-4)GlcNAc(b1-4)GlcNAc
# How it was run: as §1
# [21] = biological target: Neu5Gc(a2-3)Gal(b1-4)[Fuc(a1-3)]GlcNAc
# How it was run: as §1
# [22] = biological target: Neu5Gc(a2-6)Gal(b1-4)GlcNAc
# How it was run: as §1
# Neu5Gc(a2-6)GalNAc = biological target: Neu5Gc(a2-6)GalNAc
# How it was run: as §1
# [23] = biological target: Neu5Gc(a2-8)Neu5Ac(a2-3)Gal(b1-4)GlcNAc
# How it was run: as §1
# [24] = biological target: Neu5Gc(a2-8)Neu5Gc(a2-3)Gal(b1-4)GlcNAc
# How it was run: as §1
# [25] = biological target: Neu5Gc(a2-8)Neu5Gc(a2-3)Gal(b1-4)GlcNAc(b1-3)Gal(b1-4)GlcNAc
# How it was run: as §1
# [26] = biological target: Neu5Gc(a2-8)Neu5Gc(a2-6)Gal(b1-4)GlcNAc
# How it was run: as §1
# [27] = biological target: Neu5Gc(b2-6)Gal(b1-4)GlcNAc
# How it was run: as §1
binder,measurement,setting,value
B1,glycan array binding signal (z-score),Neu5Ac(a2-8)Neu5Ac,-0.379
same,glycan array binding signal (z-score),[1],-0.379
same,glycan array binding signal (z-score),[2],-0.359
same,glycan array binding signal (z-score),[3],-0.438
same,glycan array binding signal (z-score),[4],-0.409
same,glycan array binding signal (z-score),[5],-0.339
same,glycan array binding signal (z-score),[6],-0.162
same,glycan array binding signal (z-score),[7],-0.051
same,glycan array binding signal (z-score),[8],-0.432
same,glycan array binding signal (z-score),[9],-0.36
same,glycan array binding signal (z-score),[10],-0.358
same,glycan array binding signal (z-score),[11],-0.393
same,glycan array binding signal (z-score),[12],-0.401
same,glycan array binding signal (z-score),[13],-0.214
same,glycan array binding signal (z-score),Neu5Ac(b2-6)GalNAc,-0.472
same,glycan array binding signal (z-score),[14],-0.326
same,glycan array binding signal (z-score),[15],-0.407
same,glycan array binding signal (z-score),[16],-0.453
same,glycan array binding signal (z-score),[17],-0.218
same,glycan array binding signal (z-score),[18],-0.123
same,glycan array binding signal (z-score),Neu5Gc(a2-3)Gal(b1-4)Glc,-0.322
same,glycan array binding signal (z-score),[19],-0.338
same,glycan array binding signal (z-score),[20],2.28
same,glycan array binding signal (z-score),[21],-0.314
same,glycan array binding signal (z-score),[22],-0.274
same,glycan array binding signal (z-score),Neu5Gc(a2-6)GalNAc,-0.283
same,glycan array binding signal (z-score),[23],-0.39
same,glycan array binding signal (z-score),[24],-0.333
same,glycan array binding signal (z-score),[25],-0.257
same,glycan array binding signal (z-score),[26],-0.305
same,glycan array binding signal (z-score),[27],-0.228
